Data published in the RNAGym collection of RNA variant scans (doi:10.1073/pnas.2313332121).
This sample is rich in variants without activity.

B1: TPR 5TU (parent)
chain: GGAUCUUCUCGAUCUAACAAAAAAGACAAAUCUGCCACAAAGCUUGAGAGCAUCUUCGGAUGCAGAGGCGGCAGCCUUCGGUGGCGCGAUAGCGCCAACGUUCUCAACUAUGACACGCAAAACGCGUGCUCCGUUGAAUGGAGUUUAUCAUG

Variants of: B1
Test: polymerase ribozyme fitness, log enrichment relative to wild type (log ratio); higher = more active; in vitro selection for triplet polymerase activity
How it was run: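 Fitness measures genotype enrichment against wild-type enrichment on a logarithmic scale, with inverse-variance-weighted averaging of replicates. The logarithm is base 2, and genotypes were kept only with ≥10 input reads and ≥1 read per output in Illumina sequencing. The sequenced libraries came from one triplicate in vitro selection round, including frozen incubation at −7 °C, of PCR-built, transcribed mutant libraries of each subunit of a heterodimeric triplet polymerase ribozyme.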

| Variant | polymerase ribozyme fitness (log ratio) |
| --- | --- |
| GGAUGUUCGCGAUCUAACAAAAAAGACAAAUCUGCCACAAAGCUUGAGAGCAUCUUCGGAUGCAGAGGCGGCAGCCUUCCGUGGCGCGAUAGCGCUAACGUUCUAAACUAUGACACGCAAAACGCGUGCUCCGUUGAAUGGAGUUUAUCGUG [C5G U9G G80C C96U C105A A150G] | ≤ -4.2 |
| GGAUGUUCUCGACCUACCAAAAAAGACAAAUCUGCCACAAAGCUUGAGAGCAUCUUCGGAUGCAGAGGCGGCAGCCUUCGGUUGCGCGAUAGCGCCAACGUUCUCAACUAUGACACGCAAAACGCGUGCUCCGCUGCAUGGAGUUUAUCAUG [C5G U13C A17C G83U U134C A137C] | ≤ -4.2 |
| GGAUGGUCUCGAUCUAACAAAAAAGACAAAUCUGCCAUAAUGCUUGUGAGCAUCUUCGGAUGCAGAGGCGGCAGCCUUCGGUGGCACGAUCGCGCCAACGUUCUCAACUAUGACACGCAAAACGCGUGCUCCGUUGAAUGGAGUUUAUCAUG [C5G U6G C38U A41U A47U G86A A91C] | ≤ -4.2 |
| GGAUGUUCUCGAUCGAACAAAAAAGACAAAUCUGCCACAAAGCUUGAGAGCAUCUUCGGAUGCAGAGGCGGCCGCCUUCGGUGGCGCGAUAACGCCAACGUUCUCAACUAUGACACGCAAAACGCGUGCUCCGUUGAAUGGAGUUUAUCAUG [C5G U15G A73C G92A] | ≤ -4.2 |
| GGAUGUUCUCGAUCGAACGAAAUAGACAAAUCUGCCACAAAGCUUGAGAGCAUCUUCGGAUGCAGAGGCGGCAGCCUUCGGUGGCGCGAUAGCGCCAACGUUGUCAACUAUGACACGCAAAACACGUGCUACGUUGAAUGGAGUUUAUCAUG [C5G U15G A19G A23U C103G G124A C131A] | ≤ -4.2 |
| GGAUGUUCGCGAUCUAACAAAAAAGACAAAUCUGCCACAAUGCUUGGGAGCAUCUUCGGAUGCAGAGACGGCAGCCUUCGGUGGCGCCAUAGCGCCAACGUUCUCAACUAUGACACGCAAAACGCGUGCUCCGUUGAAUGGAGUUUAUCAUG [C5G U9G A41U A47G G68A G88C] | ≤ -4.2 |
| GGAUGUUCGCGAUCUAACAAUAAAGACAAAUCUGCCACAAAGUUUGAGAGCAUCUUCGGAUGCAGAGGCGGCAGCCUUCGGUGGCGCGAUAGCGCCAACGUUCUCAACUAUGACACGCAAAACGCGUGCUCCGUUGAAUGGAGUUUAUCAUA [C5G U9G A21U C43U G152A] | ≤ -4.2 |
| GGAUGUUCGAGAUCUAACAAAAAAGACAAAUCUGCCACAAAGCUUGAGCGCAUCUUCGGAUGCAGAGGCGGCAGCCGUCGGUGGCGAGAUAGCGUCAACGUUCUCAACUAUGCCACGCAAAACGCGUGCUCCGUUGAAGGGUGAUUAUCAUG [C5G U9G C10A A49C U77G C87A C95U A113C U139G A142U U144A] | ≤ -4.2 |
| GGAUGUUCUCGAUCUAACAAAAAAGACAAAUCGGCCACAAAGCUUGAUAGCAUCUUCGGAUGCAGAGGCGGCAGCCUUCGGUGGAGCGAUAGCGCCAACGUUCUCAACUAUGACACGCAAAACGCGUGCUCCGUUGAACGGGGUUUAUCAUG [C5G U33G G48U C85A U139C A142G] | ≤ -4.2 |
| GGAUGAUCUCGAUCUAACAAAAAAGACAAAUCUGCCACAAAGCUUGAGAGCAUCUUCGGAUGCAGAGGCGGCAGCCUUUGGUGGCGCGAGGGCGCCAACGUUCUCAACUAUGACACGCAAAACGCGUGCUCCGUUGAAUGGAGUUUAUCAUG [C5G U6A C79U U90G A91G] | ≤ -4.2 |
| GGAUGUCCUCGGUGUAACAAAAAAGAUAAAUCUGCCACAAAGCUUGAGAGCAUCUUCGGAUGCAGAUACGGCAGCCUUCGGUUGCGCGAUAGCGCCAACGUUCUCAACUAUGACACGCAAAACGCGUGCUCCGUUGAAUGGAGUUUAUCAUG [C5G U7C A12G C14G C27U G67U G68A G83U] | ≤ -4.2 |
| GGAUGCUCUCGAUGUAACAAAUAAGACAAAUCUGCCACAAAGCUUGAGUCCAUCUUCGGAUGCAGAGGCGGCAGCCUUCGGUGCCGCGAUAUCGCCAACGUUCUCAACUAUGACACGCAAAACGGGUGCUCAUUUGAAUGGAGCUUAUCAUG [C5G U6C C14G A22U A49U G50C G84C G92U C125G C132A G133U U144C] | ≤ -4.2 |
| GGAUGCUCUCGAUCUAACAAAAAAGACAAAUCUGGCACAAAGCUUGAGCGCAUCUUCGGAUGCAGAGGCGGCAGCCUUCGGAGGCGCGAUAGCGCCAACGUUCUCAACUAUGACACGCAAAACGCGUGCUCCGUUGAAUGGAGUUUAUCAUG [C5G U6C C35G A49C U82A] | ≤ -4.2 |
| GGAUGUUCUCGAUCUAACAAAAAAGACAAAUCCGCCACAAAGCUUGAGAGCCUCUUCGGAUGCAGAGGCGGCAGCCUUCGGUGGCGCGAUAGCGCAAACGUUCUCAACUAUGACACGCAAAACGCGUGCUCCUUUGAAUGGAGUUUAUCUUG [C5G U33C A52C C96A G133U A150U] | ≤ -4.2 |
| GGAUGCUCUCGAUCUAACAAAAAAGACAAAUCUGCCACAAAGCUUGAGAACAUCUUCGGAUGCAGAGGCGGCAGCCUUCGGUGGCGCGAUAGCGCCAACGUUCUCAACUAUGACACGCAAAACGCGUGCUCCGUUGAAUGGAGUUUAUCAUG [C5G U6C G50A] | -2.74 |
| GGAUGUCCUCGAUCUAACAAACAUGACAAAUCUGCCACAAAGCUUGAGAGCAUCUUCGGAUGCAGAGGCGGCAGCCUGCGGUGGCGUGAUAGCGCCAACGUUCUCAACGAUGACACGCAAAACGCGUGCUCCGUUGAAUGGCGUUUAUCAUG [C5G U7C A22C A24U U78G C87U U109G A142C] | ≤ -4.2 |
| GGAUGUUCUCGAUCGAACAAAAAAGACAAAUCUGCCACAAAGCUUGAGAGCGUCUUCGGAUGCAGAGGCGGCAGCCUUCGGUGGCGCGAUAGCGCCAACGUUCUCAACUAUGACACGCAAAACGCGUGCUCCGUUGAAUGGAGUUUAUCAUG [C5G U15G A52G] | -1.06 |
| GGAUGUUCUCGAUCAAACAAAAAAGACAAAUCUGCCACAACGCUUGAGAGCAUCUUCGGAUGCCGAGGCGGCAGCCUUCGGUGGCGCGAUAGCGCCAACGUUCUCAACUAUGACACGCAAAACGCGUGCUCCGUUGAAUGGAGUUUAUCAUG [C5G U15A A41C A64C] | ≤ -4.2 |
| GGAUGUUCUCGAUCUAACAAAAAAGACAAAUCUGCCACAAAGCAUGAGAGCAUCUUCGGAUGCAGAGGCGGCAGCCUUCGGUGGCGCGAUAGCGCCAACGUUCUCAACUAUGACACGCAAAACGCGUGCUCCGUUGAAUGGAGUUUAUCAUG [C5G U44A] | ≤ -4.2 |
